The list shows a part of the results.

Common to all, as to assay: glycan array binding signal (z-score within array); higher = stronger binding
Common to all, as to settings: glycan notation: IUPAC condensed, linker removed

The target of assay [1] is Gal(b1-4)GlcNAc(b1-2)Man(a1-6)[GlcNAc(b1-2)Man(a1-3)]Man(b1-4)GlcNAc(b1-4)GlcNAc. Summed up: (§1)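 Glycan array data were curated from 3228 arrays in the Consortium for Functional Glycomics database and kept only where the protein sequence was available. Glycan names were converted to IUPAC-condensed notation, and columns mapping to the same glycan were averaged. The binding signal is a within-array Z-score, averaged across arrays of the same protein sequence at different concentrations or buffers and across linkers. Negative Z-scores can be read as non-binding.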

Assay [2] deals with Gal(b1-4)GlcNAc(b1-2)Man(a1-6)[Man(a1-3)]Man(b1-4)GlcNAc(b1-4)GlcNAc. Summed up: as §1
Assay [3] addresses Gal(b1-4)GlcNAc(b1-2)[Gal(b1-4)GlcNAc(b1-4)]Man(a1-3)[Gal(b1-4)GlcNAc(b1-2)Man(a1-6)]Man(b1-4)GlcNAc(b1-4)GlcNAc. Summed up:
as §1

The target in assay [4] is Gal(b1-4)GlcNAc(b1-2)[Gal(b1-4)GlcNAc(b1-4)]Man(a1-3)[Gal(b1-4)GlcNAc(b1-2)[Gal(b1-4)GlcNAc(b1-6)]Man(a1-6)]Man(b1-4)GlcNAc(b1-4)GlcNAc. Put shortly:
as §1

In assay [5] the target is Gal(b1-4)GlcNAc(b1-2)[Gal(b1-4)GlcNAc(b1-4)]Man(a1-3)[GlcNAc(b1-4)][Gal(b1-4)GlcNAc(b1-2)Man(a1-6)]Man(b1-4)GlcNAc(b1-4)GlcNAc. Summed up:
as §1

Assay [6] addresses Gal(b1-4)GlcNAc(b1-2)[Gal(b1-4)GlcNAc(b1-4)]Man(a1-3)[GlcNAc(b1-4)][Gal(b1-4)GlcNAc(b1-2)[Gal(b1-4)GlcNAc(b1-6)]Man(a1-6)]Man(b1-4)GlcNAc(b1-4)GlcNAc. Summed up:
as §1

Assay [7] deals with Gal(b1-4)GlcNAc(b1-2)[Gal(b1-4)GlcNAc(b1-6)]Man(a1-6)[Gal(b1-4)GlcNAc(b1-2)Man(a1-3)]Man(b1-4)GlcNAc(b1-4)GlcNAc. Put shortly:
as §1

The target of assay [8] is Gal(b1-4)GlcNAc(b1-2)[Gal(b1-4)GlcNAc(b1-6)]Man(a1-6)[Gal(b1-4)GlcNAc(b1-2)Man(a1-3)]Man(b1-4)GlcNAc(b1-4)[Fuc(a1-6)]GlcNAc. Summed up:
as §1

Assay [9] deals with Gal(b1-4)GlcNAc(b1-2)[Gal(b1-4)GlcNAc(b1-6)]Man(a1-6)[GlcNAc(b1-4)][Gal(b1-4)GlcNAc(b1-2)Man(a1-3)]Man(b1-4)GlcNAc(b1-4)GlcNAc. Summed up: as §1
Assay [10] deals with Gal(b1-4)GlcNAc(b1-2)[Gal(b1-4)GlcNAc(b1-6)]Man(a1-6)[GlcNAc(b1-4)][Gal(b1-4)GlcNAc(b1-2)[Gal(b1-4)GlcNAc(b1-4)]Man(a1-3)]Man(b1-4)GlcNAc(b1-4)[Fuc(a1-6)]GlcNAc. Summed up: as §1
The target of assay [11] is Gal(b1-4)GlcNAc(b1-3)Gal(b1-3)GalNAc. Summed up: as §1
Assay [12] addresses Gal(b1-4)GlcNAc(b1-3)Gal(b1-3)GlcNAc. Put shortly: as §1
Assay [13] addresses Gal(b1-4)GlcNAc(b1-3)Gal(b1-4)Glc. Put shortly: as §1
In assay [14] the target is Gal(b1-4)GlcNAc(b1-3)Gal(b1-4)GlcNAc. Put shortly: as §1
The target of assay [15] is Gal(b1-4)GlcNAc(b1-3)Gal(b1-4)GlcNAc(b1-2)Man(a1-3)[Gal(b1-4)GlcNAc(b1-3)Gal(b1-4)GlcNAc(b1-2)Man(a1-6)]Man(b1-4)GlcNAc(b1-4)GlcNAc. Summed up:
as §1

The target of assay [16] is Gal(b1-4)GlcNAc(b1-3)Gal(b1-4)GlcNAc(b1-2)Man(a1-3)[Gal(b1-4)GlcNAc(b1-3)Gal(b1-4)GlcNAc(b1-2)Man(a1-6)]Man(b1-4)GlcNAc(b1-4)[Fuc(a1-6)]GlcNAc. Summed up:
as §1

In assay [17] the target is Gal(b1-4)GlcNAc(b1-3)Gal(b1-4)GlcNAc(b1-2)[Gal(b1-4)GlcNAc(b1-3)Gal(b1-4)GlcNAc(b1-6)]Man(a1-6)[Gal(b1-4)GlcNAc(b1-3)Gal(b1-4)GlcNAc(b1-2)Man(a1-3)]Man(b1-4)GlcNAc(b1-4)GlcNAc. Summed up: as §1
In assay [18] the target is Gal(b1-4)GlcNAc(b1-3)Gal(b1-4)GlcNAc(b1-2)[Gal(b1-4)GlcNAc(b1-3)Gal(b1-4)GlcNAc(b1-6)]Man(a1-6)[Gal(b1-4)GlcNAc(b1-3)Gal(b1-4)GlcNAc(b1-2)Man(a1-3)]Man(b1-4)GlcNAc(b1-4)[Fuc(a1-6)]GlcNAc. Put shortly:
as §1

B1: DC-ASGPR-short (Homo sapiens) (protein)
chain: MTRTYENFQYLENKVKVQGFKNGPLPLQSLLQRLRSGPCHLLLSLGLGLLLLVIICVVGFQNSKFQRDLVTLRTDFSNFTSNTVAEIQALTSQGSSLEETIASLKAEVEGFKQERQAVHSEMLLRVQQLVQDLKKLTCQVATLNNNASTEGTCCPVNWVEHQDSCYWFSHSGMSWAEAEKYCQLKNAHLVVINSREEQNFVQKYLGSAYTWMGLSDPEGAWKWVDGTDYATGFQNWKPGQPDDWQGHGLGGGEDCAHFHPDGRWNDDVCQRPYHWVCEAGLGQTSQESH
As for B1, the “glycan array binding signal (z-score)” value in assay [1] was -0.227; in [2] it was -0.271; in assay [3] it was -0.285; in assay [4] it was -0.283; in assay [5] it was -0.267; in assay [6], -0.296. The “glycan array binding signal (z-score)” value in assay [7] is -0.283; in [8] it was -0.277; in assay [9], -0.282; in [10], -0.281; in [11], -0.694; in assay [12], -0.286. Further, the “glycan array binding signal (z-score)” value in assay [13] is -0.265; in assay [14] it was -0.281; in [15], -0.244; in assay [16], -0.229; in assay [17] it was 0.171; in assay [18], -0.221.

The values are drawn from the supplement of paper PMC8728848.
